Source: ChEMBL document CHEMBL4888484, “Replenishing the malaria drug discovery pipeline: Screening and hit evaluation of the MMV Hit Generation Library 1 (HGL1) against asexual blood stage Plasmodium falciparum ,using a nano luciferase reporter read-out” (2022)
Among all 150,000 compounds or so, about 540 (0.36%) showed an effect of 50% or more. The list shows a part of the results.

These molecules were tested on Plasmodium falciparum (assay: Primary screen in NF54 nanoGlo assay, in single point, at 2uM, 72h; a lower Z score goes with more inhibition). Settings: timepoint 72 hour.
Type: functional, Erythrocyte

Compound	% Inhibition	Z score
c1cncc(CNCCc2ccc3[nH]ccc3c2)c1	-9%	1
O=C(c1cc(Cl)c(Cl)[nH]1)C(Cl)(Cl)Cl	8%	-0.98
COCCOCCN1CCC2(CCCCCC2)C1	2%	-0.29
CC(C)=CCN1C[C@@H]2CC[C@H]1CN(C(=O)c1c[nH]c(=O)c(Cl)c1)C2	3%	-0.49
CCC1(CC)C(=O)NC(=NCCCO)NC1=O	1%	-0.1
O=c1c2ccccc2nc(-c2cccnc2)n1-c1cccnc1	-11%	1.25
NC1(c2nc(-c3ccsc3)no2)CCCCC1	-1%	0.14
O=C([C@@H]1CC(c2ccc(Cl)c(Cl)c2)=NO1)N1CCC2(CC1)OCCO2	4%	-0.58
Cn1ncc2c1CCCN(c1ccc(C#N)c(Br)c1)C2	5%	-0.7
CC(C)(C)NC(=O)C1CC2CCCCC2CN1 (configuration not stated)	36%	-4.67
CCOC(=O)N1[C@@H]2CC[C@H]1c1c(nc(N)c(C#N)c1-c1ccccc1OC)C2	0%	-0.02
O=C(Nc1ccc(-c2noc(=O)[nH]2)cc1)C1(c2cccc(F)c2)CCC1	-4%	0.57
COc1ccc(CN2[C@@H]3CC[C@H]2C[C@@H](O)C3)cc1F	-3%	0.39
COc1ccccc1[C@@H]1CC(c2c(O)n(C)c(=O)n(C)c2=O)=NN1C(C)=O	-16%	2.23
COc1cccc([C@H]2CN(C(=O)c3cnc(C)nc3)[C@@H]3C4CCN(CC4)[C@H]23)c1	-6%	0.87
CCOc1ccc(Cc2c(O)nc(O)nc2O)cc1	2%	-0.33
Cc1nn(C)c(C)c1CN1C2CCC1C(C(=O)OC(C)(C)C)C2 (configuration not stated)	2%	-0.29
O=C(c1ccsc1)N1CCN(CCF)CC1	4%	-0.5
CC(O)(CN1C2CCC1CC(=O)NC2)C(F)(F)F (configuration not stated)	1%	-0.19
CCC(CC)c1cc([C@H]2CN3CC[C@H]2C[C@@H]3CNS(=O)(=O)Cc2ccccc2)nc(-c2ccncc2)n1	75%	-9.43
COc1ccc2c(c1)C[C@H](NC(=O)N1CCC3(CC1)OCCO3)CO2	-13%	1.8
Cc1nc(CN2C3CCC2CC(C)(O)C3)oc1C (configuration not stated)	-11%	1.7

Compound	% Inhibition	Z score
CCCNc1ncc(CN2CCNC(=O)C23CCCC3)cn1	-9%	1.25
CC(C)N1CCN(c2ccnc(C3CC3)n2)CC1	3%	-0.47
C[C@@H](Cc1ccc(Cl)cc1)NCc1nc(C(F)F)no1	-7%	1.2
COc1ccc2c(c1)OC[C@@]1(C(=O)O)CN(C(=O)c3cc(C)ccc3C)C[C@@H]21	-8%	1.29
COCCn1ccc(C(=O)NC(C)(C)c2ccc(F)cc2Cl)n1	4%	-0.52
C[C@@H](Cc1ccc(O)cc1)NCc1cc[nH]n1	37%	-1.08
Cc1cccc(=O)n1C[C@](C)(O)C(=O)Nc1cc(CC(C)(C)C)n[nH]1	-13%	1.22
COc1ccc(-c2nc(-c3ccc4c(c3)oc(=O)n4C(C)C)no2)c(C)c1	-15%	1.48
CC1CC(C)C2N(C1)c1ccccc1CC21C(=O)NC(=O)N(C)C1=O (configuration not stated)	1%	-0.13
C#C[C@H]1C[N@@]2CC[C@H]1C[C@@H]2CNCc1ccc2c(c1)OCO2	9%	-1.13
COc1ccc(OC(=O)NC(C)C)cc1	-14%	1.7
COc1cccnc1-c1cccc2c1CCNC2	14%	-1.98
Cc1nc(CNCCc2c[nH]c3ccccc23)cs1	-11%	1.72
O=C(Cn1c(-c2ccccc2)cc2ccccc21)N1C[C@@H]2C[C@@H](C1)c1cccc(=O)n1C2	-10%	1.93
COc1ccc(-c2ccc3n(c2=O)C[C@H]2C[C@@H]3CN(S(C)(=O)=O)C2)cc1	-2%	0.44
COc1cccc(CCNCc2c(Br)c(C)nn2C)c1	-7%	1.08
Cc1ccc([C@@H]2CN(C(=O)c3cccc(O)c3C)[C@@H]3C4CCN(CC4)[C@@H]32)cc1	-9%	0.93
CCC(=O)N1N=C(c2c(O)n(C)c(=O)n(C)c2=O)C[C@H]1c1ccc(N(CC)CC)cc1	-4%	0.77
CCc1nccn1C[C@H](C)N(C)Cc1ncc[nH]1	-14%	2.14
O=C(NCC#CCN1CCCC1)NCc1ccccc1	-7%	1.32
O=C(Cn1c(-c2ccccn2)noc1=O)Nc1ccccc1-c1ccccc1	-2%	0.33
Cc1n[nH]c([C@@H]2CN(C(=O)Cc3cccnc3)CCCN2Cc2ccccc2)n1	-8%	1.42

Compound	% Inhibition	Z score
COCCO[C@H]1COCCN(C2CCOCC2)C1	32%	-3.62
O=C1NC(=O)C2(Cc3ccccc3N3CCCCCC32)C(=O)N1c1ccccc1 (configuration not stated)	-1%	0.2
O=C(ON1CC1(C(F)(F)F)C(F)(F)F)c1ccccc1 (configuration not stated)	-16%	2.17
Cc1oc2ncn(C)c(=O)c2c1C(=O)N1CCC2(CC1)OCCO2	-6%	0.95
COc1cccc([C@H]2CCN(Cc3cccc4[nH]ccc34)C[C@@H]2O)c1	-7%	1.33
COC(=O)C12CCCC1CN(Cc1cc[nH]n1)C2 (configuration not stated)	7%	-1.26
c1ccc(CCN(Cc2cccnc2)Cc2ccoc2)cc1	-1%	0.23
O=c1cccc2n1CC1CC2CN(C2Cc3ccccc3C2)C1 (configuration not stated)	5%	-0.6
Nc1ccc2c(c1)[C@H](c1ccccc1)NCC(=O)N2	28%	-3.16
Cc1ccc2c(c1)[C@H]1CN(C)CC[C@@H]1N2C(=O)CC(n1cccn1)C(F)(F)F (some centres not stated)	-14%	1.52
COCCn1ccc(C(=O)N[C@H]2CCc3nc(C(C)C)nn3C2)n1	71%	-11.17
CCC(=O)NCC(=O)N[C@@H](C)Cc1ccc(Cl)cc1Cl	-4%	0.56
CC1CCCC(C)C1NC1CC2CCC1O2 (configuration not stated)	-3%	0.39
Cc1cc(CN2C3CCC2CC(=O)C3)ccc1F	-5%	0.93
CCn1nc(C)c(CN[C@@H](C)Cn2ccnc2)c1C	2%	-0.34
COc1cccc(CN2CC(C)OC3(CCOC3)C2)n1 (configuration not stated)	-13%	1.6
COc1ccccc1C(=O)N1C[C@@H]2C[C@H](C1)c1c(-c3ccccc3F)ccc(=O)n1C2	-7%	1.08
Cc1ccc2c(c1)C[C@]1(CN2C)C(=O)N(C(C)C)C(=O)N=C1O	-2%	0.24
O=c1[nH]c2ccccc2c(=O)n1-c1cccnc1	-18%	3.12
O=S1(=O)CC[C@@H]2CN(Cc3ncccc3C(F)(F)F)C[C@@H]21	6%	-1.15
CN(C)[C@@H](Cn1cnnc1)c1ccccn1	-2%	0.31
CCn1cc(-c2ccc(F)cc2)cc1C(=O)N1CCC2(CC1)OCCO2	-1%	0.19

Compound	% Inhibition	Z score
Cc1ccc(C(=O)[C@@H]2CCCN2)cc1C	-13%	1.72
Cc1oc(S(N)(=O)=O)cc1C(=O)N1C2CCC1C(CO)C2 (configuration not stated)	0%	0.04
O=C1CO[C@H]2CN(Cc3ccccc3)C[C@H]2N1Cc1ccccn1	16%	-1.86
O=C1NCCN2CCN(C(=O)c3ccc4ccccc4n3)CC[C@@H]12	-2%	0.41
O=C(CCN1CCOCC1)OC1CC2CCC(C1)N2CCc1ccccc1 (configuration not stated)	32%	-3.66
CCCn1cc(C(=O)Nc2ccccc2OCC)c2cccnc21	-1%	0.21
O=C(Cc1ccccc1)N1CCN(Cc2ccc3c(c2)OCO3)CC1	-12%	2.22
CC(Cn1cc(Br)cn1)N[C@H](CCO)c1ccccc1 (some centres not stated)	1%	-0.08
CN(C)C(=O)Oc1cccc2ccc(CN3CCC(N4CCN(c5ccc(C(F)(F)F)cn5)CC4)CC3)nc12	47%	-2.74
Cc1cc(N2C[C@H](c3ccccc3)[C@@H]3[C@H]2C2CCN3CC2)cc(C)n1	-4%	0.51
CCOc1ccc(-c2c(C#N)c(N)nc3c2N2CCC3CC2)cn1	-2%	0.25
CCc1nn(C)cc1CN1CC(C)CC1c1cccnc1 (configuration not stated)	-12%	1.53
c1cnc(N2C[C@@H](c3ccc4c(c3)OCO4)[C@@H]3[C@H]2C2CCN3CC2)nc1	-3%	0.67
OC[C@@H]1C[C@@H]2CC[N@]1C[C@H]2c1cn(-c2ccccc2)nn1	-13%	1.97
O=C1NC(=O)N(c2ccccc2)C(=O)[C@H]1C(c1ccc(F)cc1)c1ccc(F)cc1	-6%	1.02
c1cc(-c2nc([C@@H]3CN4CCN3CC4)no2)no1	-11%	1.49
CCc1cccc(NC(=O)CN2C3CCC2CC(=O)C3)c1	-6%	0.77
Cc1c(C)[n+]([O-])c([C@@H](c2ccc(Cl)cc2Cl)C2C(=O)NC(=O)NC2=O)n1CCO	-5%	0.63
CCn1cc(CN2CCC[C@]3(C2)CC3(F)F)nn1	1%	-0.09
C[C@@H](Cc1ccc(Br)cc1)NCCS(C)(=O)=O	-2%	0.35
